Assay results published in PubChem BioAssay AID624202 (National Center for Advancing Translational Sciences (NCATS), 2012).
Screen size: about 380,000 compounds; about 4,000 (1.1%) were called active. This list was built around the results that the source calls inconclusive (neither active nor inactive); the mix of calls is not that of the screen. Calls come from the whole dose curve; as a rule, active = well fitted activation curve with a large enough effect; inconclusive = small, poorly fitted or top-dose-only effect; inactive = no such curve, though single readings can be large or run the other way. Potencies of inconclusive entries are doubtful fits and often do not repeat.

Assay: qHTS Assay to Identify Small Molecule Activators of BRCA1 Expression; note: nearly all actives have a fitted effect of over 80% in size
Conditions: MCF7-BRCA1-FFLuc reporter, luminescence, 48 h; activation: at 46.1 µM (top of the series), scaled: vehicle 0%, 10 µM genistein 100% unless noted
Outline: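 MCF7-BRCA1-FFLuc cells, 2000/well in phenol-red-free MEM, attached 2 h then treated 48 h at 37 C. Luciferase luminescence read 15 min after reagent; normalized to genistein maximum activation (10microM) and DMSO, concentration-response fitted.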
Potency is the fitted concentration of half-maximal effect; tags give direction and shape of the fitted curve.

SMILES | activation | Potency
Cc1cccc[n+]1CCCCCCCCCC[n+]1ccccc1C | inactive: 2.04% | 
COc1ccc(S(=O)(=O)NC(CC(=O)NCCc2ccccc2)c2ccco2)cc1 (centres undefined) | inactive: -0.246% | 
CC(=O)NC(c1cccs1)c1cc(F)c2cccnc2c1O (centres undefined) | inactive: -75.2% | 
O=C(Cn1nnc(-c2ccccc2F)n1)N1CCCCC1 |  | active: 8.91 µM
Cc1cccc(OCc2nc3ccccc3n2C)c1 |  | inconclusive: 14.1 µM [activator, partial curve, poor fit]
CC(C)C1CCN(C(=O)C2CCC(=O)N(C3CCCCCC3)C2)CC1 (centres undefined) |  | inconclusive: 31.6 µM [activator, single point]
O=C(CSc1ncn(-c2ccccc2)n1)Nc1nc2c(s1)CCCC2 | inactive: 1.99% | 
Cc1ccc(-n2nnnc2SCC(=O)c2c(N)n(C3CC3)c(=O)[nH]c2=O)cc1C | inactive: -18.1% | 
CCC(N=c1cc(-c2ccc(OC)cc2)oc2ccc(C)cc12)C(=O)O (centres undefined) |  | inconclusive: 5.01 µM [activator, full curve, poor fit]
CC1(OC(=O)c2cccs2)C(=O)C=C2C=C3CCCN3C=C2C1=O (centres undefined) | inactive: -5.42% | 
CC1(C)Cc2c(C#N)c(N3CCN(C(=O)c4ccco4)CC3)nc(-c3ccco3)c2CS1 | inactive: -25.4% | 
Cc1ccc(C(=O)Nc2cccc(C(=O)N3CCN(C)CC3)c2)cc1 |  | inconclusive: 3.55 µM [activator, partial curve, poor fit]
O=C1CN(C(=O)COc2ccc([N+](=O)[O-])cc2Cl)c2ccccc2N1 |  | active: 11.2 µM
Cc1nn(-c2nc3ccccc3s2)c(N)c1-c1ccccc1 |  | inconclusive: 3.55 µM [activator, partial curve, poor fit]
COc1ccc(NC(=O)c2csc3c2CCCC3)cc1 |  | inconclusive: 2.82 µM [activator, partial curve, poor fit]
O=C(NC1CCCC1)C(c1ccccn1)N(C(=O)c1csnn1)C1CCCCC1 (centres undefined) | inactive: -12.2% | 
Cc1cc(/C=C2\C=Cc3ccccc32)ccc1N(C)C |  | inconclusive: 3.16 µM [activator, partial curve, poor fit]
O=C(Nc1cccc(F)c1)c1ccc2c(c1)OCO2 |  | inconclusive: 15.8 µM [activator, partial curve, poor fit]
CC(C)(C)C(=O)Nc1ccc(-c2csnn2)cc1 |  | inconclusive: 11.2 µM [activator, partial curve, poor fit]
O=C(N/N=C/c1ccccc1[N+](=O)[O-])c1ccc2nc[nH]c2c1 |  | inconclusive: 17.8 µM [activator, partial curve, poor fit]
O=C(NNC(=O)c1ccccc1F)c1cccc(-n2cccc2)c1 |  | inconclusive: 14.1 µM [activator, partial curve, poor fit]
O=C(/C=C/c1ccc(Cl)cc1Cl)N1CCc2ccccc21 |  | inconclusive: 0.631 µM [activator, full curve, poor fit]
CC1(C)Cc2nc3sc4c(=O)n(CC(=O)NCc5ccco5)cnc4c3cc2CO1 | inactive: -16.1% | 
Cc1ccc2nc(-c3cc(-c4ccccc4)no3)cn2c1 |  | inconclusive: 0.355 µM [activator, full curve, poor fit]
Cc1ccc(/C=c2/sc3n(c2=O)CCCN=3)o1 |  | inconclusive: 3.16 µM [activator, full curve, poor fit]

SMILES | activation | Potency
O=C(Nc1nc(-c2ccc(F)cc2)cs1)c1cccc(N2C(=O)CCC2=O)c1 | inactive: -28.4% | 
CCn1cc(C(=O)NCCc2ccc(OC)c(OC)c2)c(=O)c2cc(S(=O)(=O)N3CCC(C)CC3)ccc21 | inactive: -30.5% | 
O=C(N/C=C/c1ccccc1)c1ccccc1 |  | inconclusive: 3.55 µM [activator, full curve, poor fit]
Cc1nc(NC(=O)C(C)(C)C)sc1-c1nc(N)sc1-n1cc(-c2ccccc2)nn1 | inactive: 20.1% | 
CCc1ccc2nc(SCC(=O)Nc3ccccc3N3CCOCC3)c(C#N)cc2c1 | inactive: -43.3% | 
c1ccc(-n2ncc3c(N4CCCCC4)ncnc32)cc1 | inconclusive: -46.8% [activator] | 
CCNc1nc(N)nc(Oc2ccc(OCc3ccccc3)nn2)n1 | inactive: 13.2% | 
Cc1ccc(-c2nc(C#N)c(NCCCn3ccnc3)o2)cc1 |  | active: 4.47 µM
CCCC#Cc1ccc2c(c1)COc1c3ccccc3nn1-2 |  | inconclusive: 1 µM [activator, full curve, poor fit]
Clc1ccc(SCc2cn3ccccc3n2)cc1 |  | active: 5.62 µM
CCN1/C(=C/c2ccc3ccccc3[n+]2CC)C=Cc2ccccc21 | inactive: -98.9% | 
CC1=C(C(=O)Nc2ccccc2)C(c2ccncc2)n2nc(SCc3ccccc3F)nc2N1 (centres undefined) | inactive: 6.77% | 
CN1C(=O)/C(=C/C=C2\SCCN2C)OC1=S |  | active: 5.62 µM
CCC(C)NC(=O)c1cc(-c2ccccc2O)on1 (centres undefined) |  | inconclusive: 12.6 µM [activator, partial curve, poor fit]
O=[N+]([O-])c1cccnc1N1CCC(c2cc(-c3cccc(C(F)(F)F)c3)n[nH]2)CC1 | inactive: -51.9% | 
CCc1ccc2[nH]c(C(=O)Nc3ccc(Br)c(C)n3)cc2c1 |  | inconclusive: 1.78 µM [activator, full curve, poor fit]
CC(=O)c1ccc(NC(=S)NC(=O)CC(C)C)cc1 |  | active: 7.94 µM
O=C(CSc1nnc(-c2cccc(S(=O)(=O)N3CCCCC3)c2)o1)NCCC1=CCCCC1 | inactive: -26.1% | 
O=C(N/N=C/c1ccccc1F)c1csc2c1CCCC2 |  | inconclusive: 1.12 µM [activator, full curve, poor fit]
Cc1nc(C)c(-c2ccc(SCc3ccc([N+](=O)[O-])cc3)nn2)s1 | inactive: 2.31% | 
Cc1ccc2c(c1)C(=O)C(=O)N2CCCOc1ccccc1 | inactive: 69.5% | 
O=C(N/N=C/c1c[nH]c2ccc(Br)cc12)c1ccn(Cc2ccc(Cl)cc2Cl)n1 | inactive: -69.5% | 
CCOc1ccc(OCC(=O)Nc2nccs2)cc1 |  | inconclusive: 17.8 µM [activator, partial curve, poor fit]
O=C(Nc1ccc2nn(-c3ccccc3)nc2c1)c1ccc(Br)o1 |  | inconclusive: 2.51 µM [activator, partial curve, poor fit]
